The whole screen tested about 110,000 compounds, of which about 20 (0.02%) were called active. Inconclusive means that the source gave no clear call. Such entries were picked first, then a sample of the others. Calls come from the whole dose curve; as a rule, active = well fitted activation curve with a large enough effect; inconclusive = small, poorly fitted or top-dose-only effect; inactive = no such curve, though single readings can be large or run the other way. Potencies of inconclusive entries are left out as doubtful fits.
Experiment: qHTS Assay for Compounds that Induce Erasure of Genomic Imprints;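 for activity change, positive = activation: 0% = negative control wells on the plate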
Settings: mouse ES Peg3-LacZ reporter, beta-gal luminescence, 40 h; activity change, positive = activation: at 10.9 µM (top of the series) unless noted
Summary of the method: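 Gelatin-coated wells received 300 freshly trypsinized female ES cells with a Peg3LacZ-Neo reporter on the maternal allele, then incubated 40 hours at 37C. BetaGlo was added for 5 minutes at room temperature before a single luminescence read.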
Potency is the fitted concentration of half-maximal effect; tags give direction and shape of the fitted curve.

Row | SMILES | activity change, positive = activation | Potency
1 | CCOc1ccc2nc(Cl)c(C3CC(c4ccc(C)cc4)=NN3C(=O)CCCC(=O)O)cc2c1 (stereo unspecified) | inactive: -5.13% | 
2 | Cc1ccc2c(=O)cc(C(=O)Nc3ccc(S(=O)(=O)N4CCCCC4)cc3)oc2c1C | inconclusive: 32.1% [activator] | 
3 | O=C(CC(c1cccs1)N1Cc2ccccc2C1=O)Nc1ccc(Cl)cc1 (stereo unspecified) | inconclusive: 39.4% [activator] | 
4 | COc1ccc(CNC(=O)CCCCCn2c(=O)[nH]c3ccccc3c2=O)cc1 | inconclusive: 35.1% [activator] | 
5 | O=C1CC(c2ccccc2)Sc2ccccc2N1Cc1ccccc1F (stereo unspecified) | inconclusive: 42.8% [activator] | 
6 | Cc1ccc(NC(=O)CSc2nc3c(oc4ccccc43)c(=O)n2Cc2ccco2)cc1F | inconclusive: 118% [activator] | 
7 | CN(C)C(=O)CSc1cccc2cccnc12 | inactive: -26.2% [at 60.7 µM] | 
8 | Cc1cc(C)c(NC(=O)CSc2nc(=O)n(Cc3ccncc3)c3c2CCC3)c(C)c1 | inconclusive: 30.8% [activator] | 
9 | COCCn1c(C)cc(O)c(C(c2ccccc2)N2CCN(c3ccccc3F)CC2)c1=O (stereo unspecified) | inactive: -15.5% | 
10 | COc1ccc(-c2csc(-c3nc(-c4ccc(Br)s4)cs3)n2)cc1F | inactive: -5.02% | 
11 | O=c1c(-c2cc(F)cc(F)c2)nc2cnc(N3CCOCC3)nc2n1CCc1ccccc1 |  | inconclusive [activator, single point]
12 | COCCn1c(=O)c(C)nc2cnc(Nc3cccc(OC)c3)nc21 |  | inconclusive [activator, single point]
13 | CCCCCCCC/C=C\CCCCCCCC(=O)NCc1ccc(O)c(OC)c1 | inactive: -13% [at 60.7 µM] | 
14 | COC(=O)C(C)Sc1nc2c(c(=O)[nH]c(=O)n2C)n1CCC(C)C (stereo unspecified) | inactive: 1.51% [at 60.7 µM] | 
15 | CNc1ncncc1-c1c(C)noc1C |  | inconclusive [activator, full curve, poor fit]
16 | CC(=O)N1CCCc2cc(S(=O)(=O)N3CCCC(C(=O)Nc4ccc(C)c(C)c4)C3)ccc21 (stereo unspecified) | inconclusive: 42.1% [activator] | 
17 | COc1ccccc1CNC(=O)Cn1ncc2c(C)n(Cc3ccccc3Cl)c(C)c2c1=O | inactive: 1.93% | 
18 | COc1ccc(-n2c(=O)c(C)nc3cnc(OC)nc32)cc1 |  | inconclusive [activator, single point]
19 | CCOc1ccccc1N1CC(c2nc3ccccc3n2CCOc2ccc(C(C)(C)C)cc2)CC1=O (stereo unspecified) | inactive: -10.8% | 
20 | CS(=O)(=O)Nc1cccc(-c2nc(NC3CC3)c3ccccc3n2)c1 |  | inconclusive [activator, single point]
21 | COCCNC(=O)CSc1nc2cc3c(cc2c(=O)n1CCCC(=O)NCc1ccc2c(c1)OCO2)OCO3 | inconclusive: 42.7% [activator] | 
22 | Cc1noc(C)c1-c1cncnc1Nc1ccccc1 |  | inconclusive [activator, single point]
23 | CCn1c(=O)cc(C(=O)OC)sc1=Nc1ccc(F)c(F)c1 | inactive: -38.6% [at 60.7 µM] | 
24 | CCOc1ccc(CNC(=O)c2ccccc2NC(=O)c2nsc3ccccc23)cc1 | inconclusive: 132% [activator] | 
25 | Cc1ccc(-c2nc(S(=O)(=O)c3ccc(C)cc3)c(SCC(=O)c3ccccc3)o2)cc1 | inconclusive: 44.3% [activator] | 
26 | O=C(O)C(Cc1cccs1)C(=O)O |  | inconclusive [activator, single point]

Row | SMILES | activity change, positive = activation | Potency
27 | CCOC(=O)c1cnc(-n2nc(C)cc2C)nc1N(C)C | inactive: -55.1% [at 60.7 µM] | 
28 | COC(=O)c1ccc(NC(=O)c2c(NCc3ccc(OC)c(OC)c3)sc3c2CCCC3)cc1 | inactive: -25.9% | 
29 | CSc1ccc(CCNC(=O)c2ccc3c(c2)c(C)c(C)n3Cc2ccc(F)cc2)cc1 | inconclusive: 43.9% [activator] | 
30 | O=C1CC(NCc2ccncc2)C(=O)N1c1ccccc1 (stereo unspecified) |  | inconclusive [activator, single point]
31 | CCN(CC(=O)O)CC(=O)O | inactive: -4.51% | 
32 | CC(C)c1ccc2c(c1)CCC1C(C)(C(N)=O)CCCC21C (stereo unspecified) |  | inconclusive [activator, partial curve]
33 | COc1cccc(Nc2ncc3nc(-c4ccc(Cl)cc4)c(=O)n(C[C@H]4CCCO4)c3n2)c1 |  | inconclusive [activator, partial curve]
34 | Cc1ccc(Cn2c(CN3CCC(C(=O)NCCc4ccccc4)CC3)cc3ccccc32)cc1 | inactive: -6.28% | 
35 | N[C@H]1CCN(O)C1=O | inactive: -7.82% [at 60.7 µM] | 
36 | Cn1c(=O)c2ncn(CC(=O)NCCOc3ccccc3)c2n(C)c1=O |  | inconclusive [activator, single point]
37 | Cc1ccc(C)c(NC(=O)Cn2ncc3c(C)n(Cc4ccc(F)cc4)c(C)c3c2=O)c1 | inconclusive: 77.1% [activator] | 
38 | O=C(CCNC(=O)c1ccc(Br)o1)NCc1ccccn1 |  | inconclusive [activator, single point]
39 | COc1cccc(-c2nc(NCc3ccccc3)c3ccccc3n2)c1 | inactive: -16.1% [at 60.7 µM] | 
40 | CCOc1ccc(C(=O)Nc2ccc3c(c2)CCCN3S(=O)(=O)c2ccc(C)cc2)cc1 | inconclusive: 60.7% [activator] | 
41 | Cc1cc2c(cc1S(=O)(=O)Nc1ccc(C(C)C)cc1)OCCN2C | inconclusive: 86.6% [activator] | 
42 | CCOC(=O)Nc1cccc(OCC(=O)Nc2ccc(OC)cc2OC)c1 |  | inconclusive [activator, single point]
43 | O=C(Cn1ccc2cc(S(=O)(=O)N3CCCCC3)ccc21)NCc1cccc(Cl)c1 | inconclusive: 31.4% [activator] | 
44 | CC1CCC(NC(=O)c2cc3c(Cl)nc4ccccc4c3s2)CC1 (stereo unspecified) | inconclusive: 37.1% [activator] | 
45 | COc1ccc(NC(=O)C(Cc2ccccc2)n2cccc2)cc1OC (stereo unspecified) | inconclusive: 38.3% [activator] | 
46 | OC1(c2ccccc2)C/C(=N\n2cnnc2)C=C1c1ccccc1 (stereo unspecified) |  | inconclusive [activator, single point]
47 | COC(=O)c1nc2n(n1)C(c1cc(OC)ccc1OC)C(C(=O)Nc1ccc(C)cc1C)=C(C)N2 (stereo unspecified) | inconclusive: 33.3% [activator] | 
48 | Cn1c(C(=O)Nc2ccc3c(c2)OCO3)cc2c(=O)n(C)c3ccccc3c21 | inactive: -12.9% [at 60.7 µM] | 
49 | Cc1cccc2c1-c1sc(C(=O)N(C)c3cccc(C(F)(F)F)c3)cc1CO2 | inconclusive: 48.5% [activator] | 
50 | O=c1c2c3c(sc2n(Cc2ccc(F)cc2Cl)c(=O)n1-c1ccc(Cl)cc1)CCC3 | inconclusive: 41.6% [activator] | 
51 | Cc1ccc(C)c(N2CCN(c3nc4ccccc4c(=O)n3-c3ccccc3)CC2)c1 | inconclusive: 30.6% [activator] | 
52 | COc1ccc(-c2nc(SCC(=O)Nc3ccc4c(c3)OCCO4)c(-c3ccccc3)[nH]2)cc1 | inactive: -8.75% | 

Row | SMILES | activity change, positive = activation | Potency
53 | Cc1ccccc1NC(=O)CN1C(=O)C(C)(C)c2ccccc21 | inconclusive: 35.4% [activator] | 
54 | Cc1nc(-c2ccccc2)sc1CCNS(=O)(=O)c1ccccc1 | inconclusive: 34.5% [activator] | 
55 | CCOc1cc2sc(N3CCC(C(=O)Nc4ccc(C)cc4C)CC3)nc2cc1Br | inconclusive: 78.9% [activator] | 
56 | Cc1ccc(S(=O)(=O)NC2(C(F)(F)F)C(=O)Nc3c2c(=O)[nH]c(=O)n3-c2ccccc2)cc1 (stereo unspecified) | inconclusive: 70.6% [activator] | 
57 | COC(=O)c1ccccc1NC(=O)NCc1cccnc1 |  | inconclusive [activator, full curve]
58 | COc1cccc2c(=O)c3c(cnn3C)n(C)c12 | inactive: -23.9% [at 60.7 µM] | 
59 | CCCC(=O)Nc1ccc2c(c1)nc1n2CCOC1 | inactive: -1.39% [at 60.7 µM] | 
60 | COc1ccccc1N1CCN(c2ccc(=O)n(CC(=O)NCc3ccc(F)cc3)n2)CC1 | inconclusive: 30.5% [activator] | 
61 | Cc1cc(S(=O)(=O)NC2CCCCC2)ccc1OCC(=O)NCc1ccccn1 |  | inconclusive [activator, single point]
62 | COc1ccc(OC)c(C2C(C(=O)Nc3ccc(C)cc3)=C(C)Nc3nnnn32)c1 (stereo unspecified) | inactive: -14.4% | 
63 | CCSC(=N)N |  | inconclusive [activator, single point]
64 | Cc1nc2cnc(Oc3ccccc3)nc2n(Cc2cccs2)c1=O |  | inconclusive [activator, full curve, poor fit]
65 | C[C@@H](/C=C\c1cccc(Oc2ccc(F)cc2)c1)N(O)C(N)=O | inactive: -29.6% [at 60.7 µM] | 
66 | NC(N)=NNC(=O)C(=O)O |  | inconclusive [activator, partial curve]
67 | COc1ncc2nc(C)c(=O)n(C3CC3)c2n1 |  | inconclusive [activator, single point]
68 | [O-][n+]1c(CN2CCCCC2)nc2cccc3c2c1-c1ccccc1-3 | inactive: 17.8% | 
69 | COc1ccc(S(=O)(=O)NCCc2sc(C)nc2C)cc1 | inconclusive: 41.5% [activator] | 
70 | Cc1ccc(Cl)cc1N1CCN(C(=O)c2cc3c(=O)n(C)c4ccccc4c3n2C)CC1 |  | inconclusive [activator, single point]
71 | CC(C)(C)n1nnnc1C(c1cc2cc3c(cc2[nH]c1=O)OCO3)N1CCN(c2ccccc2)CC1 (stereo unspecified) |  | inconclusive [activator, single point]
72 | OCCCSCCO | inactive: -3.95% | 
73 | COc1ccc(-n2c(-c3ccccc3F)nc3c(cnn3-c3ccc(C)cc3)c2=O)cc1 | inactive: -10.3% | 
74 | CC1=CC(=O)C2C(C)(C)CCC[C@@]2(C)[C@@]1(O)CCc1ccoc1 (stereo partly specified) | inactive: -5.35% [at 60.7 µM] | 
75 | FC(F)(F)c1ccccc1-c1ccc2ncnc(NCCN3CCOCC3)c2c1 |  | inconclusive [activator, single point]
76 | COc1ccc(-c2nc3cnc(Nc4cccc(OC)c4)nc3n(C3CC3)c2=O)cc1 |  | inconclusive [activator, single point]
